Drawing on PMC12820563, “FoxP3 forms a head-to-head dimer in vivo and stabilizes its multimerization on adjacent microsatellites”, this text covers binding signal for 31 sequences.

Some of the results follow.

The target in the assay is T1, MBP-FoxP1dN (Mus musculus, UniProt P58462 326-579).
T1 sequence: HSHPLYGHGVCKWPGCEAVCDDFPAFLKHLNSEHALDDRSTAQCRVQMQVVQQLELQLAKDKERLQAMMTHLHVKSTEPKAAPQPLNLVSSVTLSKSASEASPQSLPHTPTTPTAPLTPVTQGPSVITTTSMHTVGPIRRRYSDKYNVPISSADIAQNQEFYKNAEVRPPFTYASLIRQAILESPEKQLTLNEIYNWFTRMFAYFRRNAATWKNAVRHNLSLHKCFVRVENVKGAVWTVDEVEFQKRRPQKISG
As to the kind of experiment: PD-seq (MBP pull-down with sequencing); 20 mM Tris-HCl pH 7.5, 100 mM NaCl, 1.5 mM MgCl2, 0.4 uM protein, 0.1 uM dsDNA library, 30 min, room temperature, amylose pull-down; high values mean tight binding. The settings on record: protein: recombinant; tags: His6-MBP; chain copies: 2; dsDNA, one strand shown. The method, boiled down: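 E. coli-expressed mouse FoxP3 or FoxP1 fragment, N-terminus removed and tagged with His6-MBP, was used at 0.4 µM against 0.1 µM of a Klenow-filled degenerate double-stranded DNA library. After 30 min at room temperature in Tris pH 7.5 buffer with NaCl and MgCl2, complexes were pulled down on amylose resin and washed three times. Binding is pull-down over input reads-per-million enrichment from pooled replicates of the proteinase K-released, PCR-barcoded, Illumina-sequenced DNA.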
As for “GATGATTGTTCTCCCAGCTGATGAATTCGTCAACTCGAGTAAACAAATTTTCCTAATCTTTCTGTTCAAGCGCCATCTAC”, the binding signal was 0.958 RPM ratio (pull-down/input). To “GATGATTGTTCTCCCAGCTGATGAATTTTGTAGCTCGAGTAAACAAATTTTCCTAATCTTTCTGTTCAAGCGCCATCTAC” belongs 1.03 RPM ratio (pull-down/input); to “GATGATTGTTCTCCCAGCTGATGAATTATGTTACTCGAGTAAACAAATTTTCCTAATCTTTCTGTTCAAGCGCCATCTAC”, 1.21 RPM ratio (pull-down/input); to “GATGATTGTTCTCCCAGCTGATGAATTCAATAATTCGAGTAAACAAATTTTCCTAATCTTTCTGTTCAAGCGCCATCTAC”, 1.06 RPM ratio (pull-down/input). As for “GATGATTGTTCTCCCAGCTGATGAATTCGGCTTGTCGAGTAAACAAATTTTCCTAATCTTTCTGTTCAAGCGCCATCTAC”, the binding signal is 0.828 RPM ratio (pull-down/input). With “GATGATTGTTCTCCCAGCTGATGAATTGCCAGCTTCGAGTAAACAAATTTTCCTAATCTTTCTGTTCAAGCGCCATCTAC”, the binding signal was 0.907 RPM ratio (pull-down/input). To “GATGATTGTTCTCCCAGCTGATGAATTGACCAGCTCGAGTAAACAAATTTTCCTAATCTTTCTGTTCAAGCGCCATCTAC” belongs 0.83 RPM ratio (pull-down/input); to “GATGATTGTTCTCCCAGCTGATGAATTAGTAATTTCGAGTAAACAAATTTTCCTAATCTTTCTGTTCAAGCGCCATCTAC”, 1.07 RPM ratio (pull-down/input); to “GATGATTGTTCTCCCAGCTGATGAATTACGAGGTTCGAGTAAACAAATTTTCCTAATCTTTCTGTTCAAGCGCCATCTAC”, 0.966 RPM ratio (pull-down/input). As for “GATGATTGTTCTCCCAGCTGATGAATTCTCCCTATCGAGTAAACAAATTTTCCTAATCTTTCTGTTCAAGCGCCATCTAC”, the figure is 0.991 RPM ratio (pull-down/input); as for “GATGATTGTTCTCCCAGCTGATGAATTTCCCGCATCGAGTAAACAAATTTTCCTAATCTTTCTGTTCAAGCGCCATCTAC”, 1.09 RPM ratio (pull-down/input).

As for “GATGATTGTTCTCCCAGCTGATGAATTATTGGCGTCGAGTAAACAAATTTTCCTAATCTTTCTGTTCAAGCGCCATCTAC”, the binding signal is 1.13 RPM ratio (pull-down/input).

Turning to “GATGATTGTTCTCCCAGCTGATGAATTTAACCTGTCGAGTAAACAAATTTTCCTAATCTTTCTGTTCAAGCGCCATCTAC”, the binding signal was 0.834 RPM ratio (pull-down/input). On to “GATGATTGTTCTCCCAGCTGATGAATTCATCCATTCGAGTAAACAAATTTTCCTAATCTTTCTGTTCAAGCGCCATCTAC”, for which the binding signal is 0.889 RPM ratio (pull-down/input). With “GATGATTGTTCTCCCAGCTGATGAATTTTGATCTTCGAGTAAACAAATTTTCCTAATCTTTCTGTTCAAGCGCCATCTAC”, the binding signal was 0.96 RPM ratio (pull-down/input). Take “GATGATTGTTCTCCCAGCTGATGAATTCGCCGAGTCGAGTAAACAAATTTTCCTAATCTTTCTGTTCAAGCGCCATCTAC”: the binding signal was 0.759 RPM ratio (pull-down/input). Consider “GATGATTGTTCTCCCAGCTGATGAATTACTTCGTTCGAGTAAACAAATTTTCCTAATCTTTCTGTTCAAGCGCCATCTAC”, for which the binding signal is 1.03 RPM ratio (pull-down/input). For “GATGATTGTTCTCCCAGCTGATGAATTCGCTAGATCGAGTAAACAAATTTTCCTAATCTTTCTGTTCAAGCGCCATCTAC”, the binding signal is 0.861 RPM ratio (pull-down/input).

Regarding “GATGATTGTTCTCCCAGCTGATGAATTAGTTCGTTCGAGTAAACAAATTTTCCTAATCTTTCTGTTCAAGCGCCATCTAC”, the binding signal was 0.937 RPM ratio (pull-down/input). With “GATGATTGTTCTCCCAGCTGATGAATTACGTAGCTCGAGTAAACAAATTTTCCTAATCTTTCTGTTCAAGCGCCATCTAC”, the binding signal is 0.976 RPM ratio (pull-down/input). As for “GATGATTGTTCTCCCAGCTGATGAATTTGCGACGTCGAGTAAACAAATTTTCCTAATCTTTCTGTTCAAGCGCCATCTAC”, the binding signal was 1.04 RPM ratio (pull-down/input). For “GATGATTGTTCTCCCAGCTGATGAATTGTACCCGTCGAGTAAACAAATTTTCCTAATCTTTCTGTTCAAGCGCCATCTAC”, the binding signal was 0.942 RPM ratio (pull-down/input). Consider “GATGATTGTTCTCCCAGCTGATGAATTCACATACTCGAGTAAACAAATTTTCCTAATCTTTCTGTTCAAGCGCCATCTAC”, for which the binding signal is 0.981 RPM ratio (pull-down/input). Regarding “GATGATTGTTCTCCCAGCTGATGAATTTGGTCGGTCGAGTAAACAAATTTTCCTAATCTTTCTGTTCAAGCGCCATCTAC”, the binding signal is 0.852 RPM ratio (pull-down/input).

Turning to “GATGATTGTTCTCCCAGCTGATGAATTGGCTCCCTCGAGTAAACAAATTTTCCTAATCTTTCTGTTCAAGCGCCATCTAC”, the binding signal was 0.824 RPM ratio (pull-down/input). As for “GATGATTGTTCTCCCAGCTGATGAATTGGGTCCGTCGAGTAAACAAATTTTCCTAATCTTTCTGTTCAAGCGCCATCTAC”, the figure is 0.797 RPM ratio (pull-down/input); as for “GATGATTGTTCTCCCAGCTGATGAATTTTCTAGTTCGAGTAAACAAATTTTCCTAATCTTTCTGTTCAAGCGCCATCTAC”, 0.895 RPM ratio (pull-down/input); as for “GATGATTGTTCTCCCAGCTGATGAATTTCGCTCCTCGAGTAAACAAATTTTCCTAATCTTTCTGTTCAAGCGCCATCTAC”, 0.842 RPM ratio (pull-down/input).

In the case of “GATGATTGTTCTCCCAGCTGATGAATTTTAACTCTCGAGTAAACAAATTTTCCTAATCTTTCTGTTCAAGCGCCATCTAC”, the binding signal was 0.872 RPM ratio (pull-down/input).

On to “GATGATTGTTCTCCCAGCTGATGAATTGGTACACTCGAGTAAACAAATTTTCCTAATCTTTCTGTTCAAGCGCCATCTAC”, for which the binding signal is 1.15 RPM ratio (pull-down/input).

For the sequence “GATGATTGTTCTCCCAGCTGATGAATTAATTGGCTCGAGTAAACAAATTTTCCTAATCTTTCTGTTCAAGCGCCATCTAC”, the binding signal was 0.936 RPM ratio (pull-down/input).
